# The supplement of paper PMC8728848
# Some of the results follow.
# B1: Gal 1 (Mus musculus), P16045 (protein)
# chain: MACGLVASNLNLKPGECLKVRGEVASDAKSFVLNLGKDSNNLCLHFNPRFNAHGDANTIVCNTKEDGTWGTEHREPAFPFQPGSITEVCITFDQADLTIKLPDGHEFKFPNRLNMEAINYMAADGDFKIKCVAFE
# What was measured:
# Assay in all cases: glycan array binding signal (z-score within array); higher = stronger binding
# Settings in all cases: glycan notation: IUPAC condensed, linker removed
# [1] = molecular target: Gal(a1-3)Gal(b1-3)GlcNAc(b1-2)Man
# How it was run: (§1)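 Glycan array data came from 3228 arrays in the Consortium for Functional Glycomics database, and only arrays with an available protein sequence were kept. Glycan names were put into IUPAC-condensed notation, and columns mapping to the same glycan were averaged. The binding signal is a within-array Z-score, averaged across arrays of one protein sequence run at different concentrations or buffers and across linkers. A negative Z-score can be read as non-binding.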
# [2] = molecular target: Gal(a1-3)Gal(b1-3)GlcNAc(b1-2)Man(a1-3)[Gal(a1-3)Gal(b1-3)GlcNAc(b1-2)Man(a1-6)]Man(b1-4)GlcNAc(b1-4)GlcNAc
# How it was run: as §1
# [3] = molecular target: Gal(a1-3)Gal(b1-3)GlcNAc(b1-3)GalNAc
# How it was run: as §1
# [4] = molecular target: Gal(a1-3)Gal(b1-3)GlcNAc(b1-6)GalNAc
# How it was run: as §1
# [5] = molecular target: Gal(a1-3)Gal(b1-3)[Fuc(a1-4)]GlcNAc(b1-2)Man(a1-3)[Gal(a1-3)Gal(b1-3)[Fuc(a1-4)]GlcNAc(b1-2)Man(a1-6)]Man(b1-4)GlcNAc(b1-4)GlcNAc
# How it was run: as §1
# Gal(a1-3)Gal(b1-4)Glc = molecular target: Gal(a1-3)Gal(b1-4)Glc
# How it was run: as §1
# Gal(a1-3)Gal(b1-4)GlcNAc = molecular target: Gal(a1-3)Gal(b1-4)GlcNAc
# How it was run: as §1
# [6] = molecular target: Gal(a1-3)Gal(b1-4)GlcNAc(b1-2)Man
# How it was run: as §1
# [7] = molecular target: Gal(a1-3)Gal(b1-4)GlcNAc(b1-2)Man(a1-3)[Gal(a1-3)Gal(b1-4)GlcNAc(b1-2)Man(a1-6)]Man(b1-4)GlcNAc(b1-4)GlcNAc
# How it was run: as §1
# [8] = molecular target: Gal(a1-3)Gal(b1-4)GlcNAc(b1-3)GalNAc
# How it was run: as §1
# [9] = molecular target: Gal(a1-3)Gal(b1-4)GlcNAc(b1-6)GalNAc
# How it was run: as §1
# [10] = molecular target: Gal(a1-3)Gal(b1-4)[Fuc(a1-3)]GlcNAc
# How it was run: as §1
# [11] = molecular target: Gal(a1-3)Gal(b1-4)[Fuc(a1-3)]GlcNAc(b1-2)Man(a1-3)[Gal(a1-3)Gal(b1-4)[Fuc(a1-3)]GlcNAc(b1-2)Man(a1-6)]Man(b1-4)GlcNAc(b1-4)GlcNAc
# How it was run: as §1
# Gal(a1-3)GalNAc = molecular target: Gal(a1-3)GalNAc
# How it was run: as §1
# [12] = molecular target: Gal(a1-3)[Gal(a1-4)]Gal(b1-4)GlcNAc
# How it was run: as §1
# [13] = molecular target: Gal(a1-4)Gal(b1-3)GlcNAc(b1-2)Man(a1-3)[Gal(a1-4)Gal(b1-3)GlcNAc(b1-2)Man(a1-6)]Man(b1-4)GlcNAc(b1-4)GlcNAc
# How it was run: as §1
# Gal(a1-4)Gal(b1-4)Glc = molecular target: Gal(a1-4)Gal(b1-4)Glc
# How it was run: as §1
# Gal(a1-4)Gal(b1-4)GlcNAc = molecular target: Gal(a1-4)Gal(b1-4)GlcNAc
# How it was run: as §1
# [14] = molecular target: Gal(a1-4)Gal(b1-4)GlcNAc(b1-2)Man(a1-3)[Gal(a1-4)Gal(b1-4)GlcNAc(b1-2)Man(a1-6)]Man(b1-4)GlcNAc(b1-4)GlcNAc
# How it was run: as §1
# [15] = molecular target: Gal(a1-4)Gal(b1-4)GlcNAc(b1-3)Gal(b1-4)Glc
# How it was run: as §1
# Gal(a1-4)GlcNAc = molecular target: Gal(a1-4)GlcNAc
# How it was run: as §1
# Gal(a1-6)Glc = molecular target: Gal(a1-6)Glc
# How it was run: as §1
# Gal(b1-2)Gal = molecular target: Gal(b1-2)Gal
# How it was run: as §1
# Gal(b1-3)Gal = molecular target: Gal(b1-3)Gal
# How it was run: as §1
# Gal(b1-3)Gal(b1-4)GlcNAc = molecular target: Gal(b1-3)Gal(b1-4)GlcNAc
# How it was run: as §1
# [16] = molecular target: Gal(b1-3)Gal(b1-4)GlcNAc(b1-2)Man(a1-3)[Gal(b1-3)Gal(b1-4)GlcNAc(b1-2)Man(a1-6)]Man(b1-4)GlcNAc(b1-4)GlcNAc
# How it was run: as §1
# Gal(b1-3)GalNAc = molecular target: Gal(b1-3)GalNAc
# How it was run: as §1
# [17] = molecular target: Gal(b1-3)GalNAc(a1-3)[Fuc(a1-2)]Gal(b1-4)Glc
# How it was run: as §1
# [18] = molecular target: Gal(b1-3)GalNAc(a1-3)[Fuc(a1-2)]Gal(b1-4)GlcNAc
# How it was run: as §1
# Gal(b1-3)GalNAc(b1-3)Gal = molecular target: Gal(b1-3)GalNAc(b1-3)Gal
# How it was run: as §1
# [19] = molecular target: Gal(b1-3)GalNAc(b1-3)Gal(a1-4)Gal(b1-4)Glc
# How it was run: as §1
# [20] = molecular target: Gal(b1-3)GalNAc(b1-4)Gal(b1-4)Glc
# How it was run: as §1
# [21] = molecular target: Gal(b1-3)GalNAc(b1-4)[Neu5Ac(a2-3)]Gal(b1-4)Glc
# How it was run: as §1
# Gal(b1-3)GlcNAc = molecular target: Gal(b1-3)GlcNAc
# How it was run: as §1
# [22] = molecular target: Gal(b1-3)GlcNAc(a1-3)Gal(b1-4)GlcNAc
# How it was run: as §1
# [23] = molecular target: Gal(b1-3)GlcNAc(a1-6)Gal(b1-4)GlcNAc
# How it was run: as §1
# Gal(b1-3)GlcNAc(b1-2)Man = molecular target: Gal(b1-3)GlcNAc(b1-2)Man
# How it was run: as §1
# [24] = molecular target: Gal(b1-3)GlcNAc(b1-2)Man(a1-3)[Gal(b1-3)GlcNAc(b1-2)Man(a1-6)]Man(b1-4)GlcNAc(b1-4)GlcNAc
# How it was run: as §1
# [25] = molecular target: Gal(b1-3)GlcNAc(b1-2)Man(a1-3)[Gal(b1-3)GlcNAc(b1-2)Man(a1-6)]Man(b1-4)GlcNAc(b1-4)[Fuc(a1-6)]GlcNAc
# How it was run: as §1
# [26] = molecular target: Gal(b1-3)GlcNAc(b1-2)Man(a1-3)[GlcNAc(b1-4)][Gal(b1-3)GlcNAc(b1-2)Man(a1-6)]Man(b1-4)GlcNAc(b1-4)GlcNAc
# How it was run: as §1
# [27] = molecular target: Gal(b1-3)GlcNAc(b1-2)[Gal(b1-3)GlcNAc(b1-6)]Man(a1-6)[Gal(b1-3)GlcNAc(b1-2)Man(a1-3)]Man(b1-4)GlcNAc(b1-4)GlcNAc
# How it was run: as §1
# [28] = molecular target: Gal(b1-3)GlcNAc(b1-3)Gal(b1-3)GlcNAc
# How it was run: as §1
# [29] = molecular target: Gal(b1-3)GlcNAc(b1-3)Gal(b1-4)Glc
# How it was run: as §1
# [30] = molecular target: Gal(b1-3)GlcNAc(b1-3)Gal(b1-4)GlcNAc
# How it was run: as §1
# [31] = molecular target: Gal(b1-3)GlcNAc(b1-3)Gal(b1-4)GlcNAc(b1-2)Man(a1-3)[Gal(b1-3)GlcNAc(b1-3)Gal(b1-4)GlcNAc(b1-2)Man(a1-6)]Man(b1-4)GlcNAc(b1-4)GlcNAc
# How it was run: as §1
binder,measurement,setting,value
B1,glycan array binding signal (z-score),[1],-0.17
same,glycan array binding signal (z-score),[2],-0.163
same,glycan array binding signal (z-score),[3],-0.23
same,glycan array binding signal (z-score),[4],-0.163
same,glycan array binding signal (z-score),[5],-0.211
same,glycan array binding signal (z-score),Gal(a1-3)Gal(b1-4)Glc,-0.31
same,glycan array binding signal (z-score),Gal(a1-3)Gal(b1-4)GlcNAc,-0.167
same,glycan array binding signal (z-score),[6],0.445
same,glycan array binding signal (z-score),[7],4.96
same,glycan array binding signal (z-score),[8],-0.094
same,glycan array binding signal (z-score),[9],-0.27
same,glycan array binding signal (z-score),[10],-0.121
same,glycan array binding signal (z-score),[11],0.101
same,glycan array binding signal (z-score),Gal(a1-3)GalNAc,-0.186
same,glycan array binding signal (z-score),[12],-0.36
same,glycan array binding signal (z-score),[13],-0.269
same,glycan array binding signal (z-score),Gal(a1-4)Gal(b1-4)Glc,-0.376
same,glycan array binding signal (z-score),Gal(a1-4)Gal(b1-4)GlcNAc,-0.318
same,glycan array binding signal (z-score),[14],-0.146
same,glycan array binding signal (z-score),[15],-0.303
same,glycan array binding signal (z-score),Gal(a1-4)GlcNAc,-0.365
same,glycan array binding signal (z-score),Gal(a1-6)Glc,0.039
same,glycan array binding signal (z-score),Gal(b1-2)Gal,0.468
same,glycan array binding signal (z-score),Gal(b1-3)Gal,-0.303
same,glycan array binding signal (z-score),Gal(b1-3)Gal(b1-4)GlcNAc,-0.195
same,glycan array binding signal (z-score),[16],0.8
same,glycan array binding signal (z-score),Gal(b1-3)GalNAc,-0.273
same,glycan array binding signal (z-score),[17],-0.41
same,glycan array binding signal (z-score),[18],-0.357
same,glycan array binding signal (z-score),Gal(b1-3)GalNAc(b1-3)Gal,-0.391
same,glycan array binding signal (z-score),[19],-0.32
same,glycan array binding signal (z-score),[20],-0.424
same,glycan array binding signal (z-score),[21],-0.383
same,glycan array binding signal (z-score),Gal(b1-3)GlcNAc,-0.203
same,glycan array binding signal (z-score),[22],0.126
same,glycan array binding signal (z-score),[23],-0.236
same,glycan array binding signal (z-score),Gal(b1-3)GlcNAc(b1-2)Man,-0.113
same,glycan array binding signal (z-score),[24],0.197
same,glycan array binding signal (z-score),[25],-0.054
same,glycan array binding signal (z-score),[26],0.047
same,glycan array binding signal (z-score),[27],1.76
same,glycan array binding signal (z-score),[28],-0.2
same,glycan array binding signal (z-score),[29],-0.047
same,glycan array binding signal (z-score),[30],-0.22
same,glycan array binding signal (z-score),[31],0.739
